Test results as given in publication PMC4361903 (Blood, 2010).

Molecular target: the molecule itself
Test: cross-linking

B1: CLEC-2 (C-type lectin receptor) on human platelets (receptor)
chain: not shown
modifications: differentially glycosylated (30 and 40kDa forms)
stoichiometry N: 2
